The source of these data is a collection of fitness landscapes (doi:10.1016/j.celrep.2020.107928).

To fix the notation:
B1: Caulobacter ParB omega fusion; a variant is named by its letters at X, in order, B8GW30 (parent)
chain: MESVVVGEPGMSEGRRGLGRGLSALLGEVDAAPAQAPGEQLGGSREAPIEILQRNPDQPRRTFREEDLEDLSNSIREKGVLQPILVRPSPDTAGEYQIVAGERAWRAAQRAGLKTVPIMVRELDDLAVLEIGIIENVQRADLNVLEEALSYKVLMEKFERTQENIAQTIGKSXSHVANXMRLLXLPDEVQSYLVSGELTAXHARAIAAAADPVALAKQIIEGGLSVRETEALARKAPNLSAGKSKGGRPPRVKDTDTQALESDLSSVLGLDVSIDHRGSTGTLTITYATLEQLDDLCNRLTRGI

Over roughly 81,000 sequences, “one-hybrid fitness for binding parS DNA” has its median near -0.17; the highest 2% begin near 0.51. Some of the results follow.

The assay covers variants of B1. The experiment in a line: one-hybrid fitness for binding parS DNA (scaled: cognate 1, non-cognate 0); higher = stronger binding. Conditions: with parS DNA site. An outline of the steps:
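Pre- and post-selection plasmids were Illumina-sequenced, three replicate libraries were pooled, and any variant with under 10 reads was removed. The libraries were Caulobacter ParB with four specificity codons randomised, selected in E. coli USO through a HIS3 reporter whose site is 19 bp from the promoter. Cells grew 48 hours at 37°C on M9 without histidine, with 0.1 mM IPTG and 5 mM 3-AT. Fitness is the log change in variant-to-wild-type read ratio, rescaled against cognate and non-cognate.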
For IETS, the “one-hybrid fitness for binding parS DNA” value is at most 0.2.
Turning to DDIT, the “one-hybrid fitness for binding parS DNA” value was at most 0.2.
For the variant RMID, the “one-hybrid fitness for binding parS DNA” value was at most 0.2.
With AMSS, the “one-hybrid fitness for binding parS DNA” value is at most 0.2.
With VKAR, the “one-hybrid fitness for binding parS DNA” value is at most 0.2.
To LIYT belongs at most 0.2.
For the variant RSRC, the “one-hybrid fitness for binding parS DNA” value worked out at 0.932.
As for RPLQ, the “one-hybrid fitness for binding parS DNA” value is at most 0.2.
Turning to EPDR, the “one-hybrid fitness for binding parS DNA” value was at most 0.2.
As to TFQS, the “one-hybrid fitness for binding parS DNA” value is at most 0.2.
RPDL: the “one-hybrid fitness for binding parS DNA” value was at most 0.2.
For HADL, the “one-hybrid fitness for binding parS DNA” value is at most 0.2.
As for RVFM, the “one-hybrid fitness for binding parS DNA” value is 0.363.
FTIR: the “one-hybrid fitness for binding parS DNA” value was at most 0.2.
Turning to PYRY, the “one-hybrid fitness for binding parS DNA” value was at most 0.2.
Turning to RVPN, the “one-hybrid fitness for binding parS DNA” value is at most 0.2.
To CEHR belongs at most 0.2; to QTFW, at most 0.2; to SPDY, at most 0.2.
Take DKVY: the “one-hybrid fitness for binding parS DNA” value was at most 0.2.
Turning to GTHR, the “one-hybrid fitness for binding parS DNA” value is at most 0.2.
The value for HARA was at most 0.2; that for APES was at most 0.2.
The value for QLPC was at most 0.2; that for RCGR was at most 0.2; that for YPEI was at most 0.2.
Turning to HYMF, the “one-hybrid fitness for binding parS DNA” value is at most 0.2.
To SDMT belongs at most 0.2.
On to RMTP, for which the “one-hybrid fitness for binding parS DNA” value was at most 0.2.
With QYKA, the “one-hybrid fitness for binding parS DNA” value was at most 0.2.
For DRTW, the “one-hybrid fitness for binding parS DNA” value is at most 0.2.
On to ALMR, for which the “one-hybrid fitness for binding parS DNA” value was at most 0.2.
Consider GSRN, for which the “one-hybrid fitness for binding parS DNA” value is at most 0.2.
The value for MHLF was at most 0.2; that for LSDL was at most 0.2.
Turning to VQLM, the “one-hybrid fitness for binding parS DNA” value is at most 0.2.
Consider MATQ, for which the “one-hybrid fitness for binding parS DNA” value is at most 0.2.
The value for WHKF was at most 0.2.
Consider RYMK, for which the “one-hybrid fitness for binding parS DNA” value is at most 0.2.
On to IYMI, for which the “one-hybrid fitness for binding parS DNA” value is at most 0.2.
Turning to AHAS, the “one-hybrid fitness for binding parS DNA” value is at most 0.2.
As for FLSG, the “one-hybrid fitness for binding parS DNA” value was at most 0.2.
With QVLD, the “one-hybrid fitness for binding parS DNA” value was at most 0.2.
For the variant NPVQ, the “one-hybrid fitness for binding parS DNA” value is at most 0.2.
With PVPG, the “one-hybrid fitness for binding parS DNA” value is at most 0.2.
The value for FTEL was at most 0.2.
The value for SANG was at most 0.2; that for VCCY was at most 0.2; that for RALE was at most 0.2.
Consider GCTA, for which the “one-hybrid fitness for binding parS DNA” value is at most 0.2.
Regarding PKPG, the “one-hybrid fitness for binding parS DNA” value was at most 0.2.
As for MSGV, the “one-hybrid fitness for binding parS DNA” value is at most 0.2.
As for PWRL, the “one-hybrid fitness for binding parS DNA” value was at most 0.2.
To AAKY belongs at most 0.2; to FMIV, at most 0.2.
For ATWP, the “one-hybrid fitness for binding parS DNA” value is at most 0.2.
In the case of LMFY, the “one-hybrid fitness for binding parS DNA” value is at most 0.2.
YSTS: the “one-hybrid fitness for binding parS DNA” value is at most 0.2.
The value for DSTR was at most 0.2.
As for YCET, the “one-hybrid fitness for binding parS DNA” value was at most 0.2.
The value for LGWS was at most 0.2.
Turning to LIAR, the “one-hybrid fitness for binding parS DNA” value is at most 0.2.
QPPH: the “one-hybrid fitness for binding parS DNA” value was at most 0.2.
As to RNGD, the “one-hybrid fitness for binding parS DNA” value is at most 0.2.
The value for HMTT was at most 0.2; that for MSCY was at most 0.2; that for RPMN was at most 0.2.
Consider QDDA, for which the “one-hybrid fitness for binding parS DNA” value is at most 0.2.
As to MFSF, the “one-hybrid fitness for binding parS DNA” value is at most 0.2.
QIEW: the “one-hybrid fitness for binding parS DNA” value is at most 0.2.
For the variant HLPP, the “one-hybrid fitness for binding parS DNA” value was at most 0.2.
Consider GSPL, for which the “one-hybrid fitness for binding parS DNA” value is at most 0.2.
The value for RVEM was 0.231; that for LPID was at most 0.2.
With LCSG, the “one-hybrid fitness for binding parS DNA” value is at most 0.2.
To VGME belongs at most 0.2.
As to RKST, the “one-hybrid fitness for binding parS DNA” value was determined as 0.749.
In the case of AFEY, the “one-hybrid fitness for binding parS DNA” value was at most 0.2.
DYSA: the “one-hybrid fitness for binding parS DNA” value is at most 0.2.
To AKCK belongs at most 0.2.
To WRYA belongs at most 0.2; to VMPS, at most 0.2.
For RAMI, the “one-hybrid fitness for binding parS DNA” value is at most 0.2.
As for TVSM, the “one-hybrid fitness for binding parS DNA” value is at most 0.2.
